74 sequences from paper PMC5892938 can be followed below.

The list shows a part of the results. At the low end of the ranking the order means little.

The target in the assay is GST-SBP-SLBP (stem-loop binding protein) (UniProt Q14493). Description: targeted RNA Bind-n-Seq.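 Also: DESeq read counts versus GST-SBP nonspecific binding control pulldown.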 To be noted: RBNS binding buffer: 25 mM Tris pH 7.5, 150 mM KCl, 3 mM MgCl2, 0.1% Tween, 0.5 mg/mL BSA, 1 mM DTT; 27 nM protein, 750 pM RNA pool; temperature not stated; high values mean tight binding.
For “GGUCACGUCUCAAUCAACUCUUUCCCCAGGGAAACCCCUGGUUAAUUCAACAGCUCGCAGUCAAG”, the binding signal (log2 fold change) is 0.228.
For “GGUCACGUCUCAAUCAACUCACUAGAGGGGGGGAAAACCCCUUUACCCUCAUCAUCAACAGCUCGCAGUCAAG”, the binding signal (log2 fold change) is -0.194.
The figure for “GGUCACGUCUCAAUCAACUCAUCUUCAGGAGUUUUCUCCUGUAAUUUCAACAGCUCGCAGUCAAG” is 0.0704.
As for “GGUCACGUCUCAAUCAACUCUUUCUCAGGAGUUUACUCCUGUAAUGUCAACAGCUCGCAGUCAAG”, the binding signal (log2 fold change) amounted to 0.198.
With “GGUCACGUCUCAAUCAACUCUUUAGAGGGGGGGAAAACCCCUUUGCCCUCAAAUUCAACAGCUCGCAGUCAAG”, the binding signal (log2 fold change) is -0.337.
The figure for “GGUCACGUCUCAAUCAACUCAUUUUCCAGGGAAAUCCCUGGCAUUUUCAACAGCUCGCAGUCAAG” is -0.0699; for “GGUCACGUCUCAAUCAACUCAUUUCCCAGGGAAAACCCUGGUAUUUUCAACAGCUCGCAGUCAAG” it is 0.171.
For “GGUCACGUCUCAAUCAACUCAACAGAGGGGGGGAAAACCCCUUUACCCUCAAAUUCAACAGCUCGCAGUCAAG” the value was 0.0512; for “GGUCACGUCUCAAUCAACUCAUCCCCCAGGGAAAGCCCUGGUAAUUUCAACAGCUCGCAGUCAAG”, 0.0505.
The figure for “GGUCACGUCUCAAUCAACUCAUCAGAGGGGGGGAAAACCCCUUUACCCUCACACUCAACAGCUCGCAGUCAAG” is -0.193.
In the case of “GGUCACGUCUCAAUCAACUCUACUCCAGGAGUUUCCUCCUGUAAUUUCAACAGCUCGCAGUCAAG”, the binding signal (log2 fold change) was -0.00113.
For “GGUCACGUCUCAAUCAACUCAAUGUCCAGGGAAAUCCCUGGUUUUCUCAACAGCUCGCAGUCAAG” the value was -0.133.
On to “GGUCACGUCUCAAUCAACUCAUUUCCCAGGGAAAGCCCUGGUUUAUUCAACAGCUCGCAGUCAAG”, for which the binding signal (log2 fold change) turned out to be 0.222.
Regarding “GGUCACGUCUCAAUCAACUCUUCCCCCAGGGAAACCCCUGGCUUUUUCAACAGCUCGCAGUCAAG”, the binding signal (log2 fold change) is -0.07.
For “GGUCACGUCUCAAUCAACUCUAUUCCAGGAGUUUUCUCCUGUAUUCUCAACAGCUCGCAGUCAAG” the value was -0.00782; for “GGUCACGUCUCAAUCAACUCUUUCGAGGGGGGGAAAACCCCUUUGCCCUCAUUUUCAACAGCUCGCAGUCAAG”, -0.317; for “GGUCACGUCUCAAUCAACUCCCAAGAGGGGGGGAAAACCCCUUUACCCUCGAUAUCAACAGCUCGCAGUCAAG”, 0.21.
The figure for “GGUCACGUCUCAAUCAACUCAUCUUCAGGAGUUUCCUCCUGUUAACUCAACAGCUCGCAGUCAAG” is 0.0391.
For “GGUCACGUCUCAAUCAACUCAUUCUCCAGGGAAAGCCCUGGUAUAUUCAACAGCUCGCAGUCAAG” the value was -0.106; for “GGUCACGUCUCAAUCAACUCAAGUCCAGGAGUUUCCUCCUGUAAAUUCAACAGCUCGCAGUCAAG”, -0.15; for “GGUCACGUCUCAAUCAACUCUAUUCCCAGGGAAAGCCCUGGCAUAUUCAACAGCUCGCAGUCAAG”, 0.211.
In the case of “GGUCACGUCUCAAUCAACUCAUCGCCAGGAGUUUACUCCUGCAUAUUCAACAGCUCGCAGUCAAG”, the binding signal (log2 fold change) was 0.125.
For the sequence “GGUCACGUCUCAAUCAACUCUUCCUCAGGAGUUUACUCCUGUAUAUUCAACAGCUCGCAGUCAAG”, the binding signal (log2 fold change) is -0.0799.
The figure for “GGUCACGUCUCAAUCAACUCAACUUCCAGGGAAAUCCCUGGCAAACUCAACAGCUCGCAGUCAAG” is 0.0464.
Turning to “GGUCACGUCUCAAUCAACUCAUCUCCCAGGGAAACCCCUGGCAAAUUCAACAGCUCGCAGUCAAG”, the binding signal (log2 fold change) was -0.0255.
In the case of “GGUCACGUCUCAAUCAACUCAAUCCCAGGAGUUUUCUCCUGCAUAGUCAACAGCUCGCAGUCAAG”, the binding signal (log2 fold change) amounted to 0.157.
For the sequence “GGUCACGUCUCAAUCAACUCAACUCCCAGGGAAAUCCCUGGUAAAUUCAACAGCUCGCAGUCAAG”, the binding signal (log2 fold change) was 0.152.
The figure for “GGUCACGUCUCAAUCAACUCAAAAGAGGGGGGGAAAACCCCUUUGCCCUCACCGUCAACAGCUCGCAGUCAAG” is 0.0854; for “GGUCACGUCUCAAUCAACUCAUCUUCCAGGGAAAACCCUGGCAUUUUCAACAGCUCGCAGUCAAG” it is -0.0497.
The figure for “GGUCACGUCUCAAUCAACUCCAAAGAGGGGGGGAAAACCCCUUUACCCUCAUCAUCAACAGCUCGCAGUCAAG” is 0.0532; for “GGUCACGUCUCAAUCAACUCCUAAGAGGGGGGGAAAACCCCUUUGCCCUCCAAAUCAACAGCUCGCAGUCAAG” it is 0.0614.
For “GGUCACGUCUCAAUCAACUCUUUUUCCAGGGAAACCCCUGGUAUUUUCAACAGCUCGCAGUCAAG” the value was -0.285.
As to “GGUCACGUCUCAAUCAACUCAUCCCCCAGGGAAAACCCUGGUUAACUCAACAGCUCGCAGUCAAG”, the binding signal (log2 fold change) turned out to be 0.137.
As to “GGUCACGUCUCAAUCAACUCUACUUCCAGGGAAAGCCCUGGUAUACUCAACAGCUCGCAGUCAAG”, the binding signal (log2 fold change) is -0.0277.
The figure for “GGUCACGUCUCAAUCAACUCAUCCCCCAGGGAAAGCCCUGGCUUUCUCAACAGCUCGCAGUCAAG” is 0.0581; for “GGUCACGUCUCAAUCAACUCACUCGAGGGGGGGAAAACCCCUUUACCCUCAACCUCAACAGCUCGCAGUCAAG” it is 0.19.
For “GGUCACGUCUCAAUCAACUCAUCCGCAGGAGUUUACUCCUGGAAAUUCAACAGCUCGCAGUCAAG” the value was -0.174.
With “GGUCACGUCUCAAUCAACUCUUCUUCCAGGGAAAACCCUGGUAUACUCAACAGCUCGCAGUCAAG”, the binding signal (log2 fold change) is -0.0494.
The figure for “GGUCACGUCUCAAUCAACUCCAAAGAGGGGGGGAAAACCCCUUUACCCUCAAUAUCAACAGCUCGCAGUCAAG” is 0.076; for “GGUCACGUCUCAAUCAACUCAGUUUCAGGAGUUUUCUCCUGUUUUCUCAACAGCUCGCAGUCAAG” it is 0.217.
In the case of “GGUCACGUCUCAAUCAACUCCACAGAGGGGGGGAAAACCCCUUUACCCUCAACUUCAACAGCUCGCAGUCAAG”, the binding signal (log2 fold change) was -0.451.
Consider “GGUCACGUCUCAAUCAACUCAACGCCAGGAGUUUCCUCCUGUAAUUUCAACAGCUCGCAGUCAAG”, for which the binding signal (log2 fold change) worked out at 0.0807.
For “GGUCACGUCUCAAUCAACUCUAUUUCCAGGGAAACCCCUGGUUUAUUCAACAGCUCGCAGUCAAG”, the binding signal (log2 fold change) was -0.229.
For “GGUCACGUCUCAAUCAACUCAACUUCCAGGGAAAUCCCUGGUAUAUUCAACAGCUCGCAGUCAAG” the value was 0.154; for “GGUCACGUCUCAAUCAACUCAAUCUCAGGAGUUUUCUCCUGUUUACUCAACAGCUCGCAGUCAAG”, 0.00768.
On to “GGUCACGUCUCAAUCAACUCUUCCCCCAGGGAAACCCCUGGUAUUCUCAACAGCUCGCAGUCAAG”, for which the binding signal (log2 fold change) is -0.117.
Turning to “GGUCACGUCUCAAUCAACUCAUCCCCAGGAGUUUCCUCCUGCAAUCUCAACAGCUCGCAGUCAAG”, the binding signal (log2 fold change) was 0.268.
For “GGUCACGUCUCAAUCAACUCUUUUUCCAGGGAAACCCCUGGCUAUUUCAACAGCUCGCAGUCAAG” the value was -0.209; for “GGUCACGUCUCAAUCAACUCUUCUUCCAGGGAAAUCCCUGGUAAACUCAACAGCUCGCAGUCAAG”, 0.00324; for “GGUCACGUCUCAAUCAACUCUUUCCCAGGAGUUUUCUCCUGUAUUUUCAACAGCUCGCAGUCAAG”, 0.0944.
Regarding “GGUCACGUCUCAAUCAACUCAGUCCCAGGAGUUUCCUCCUGCAUUCUCAACAGCUCGCAGUCAAG”, the binding signal (log2 fold change) was found to be 0.0232.
The figure for “GGUCACGUCUCAAUCAACUCUUUCCCCAGGGAAAUCCCUGGCUUUUUCAACAGCUCGCAGUCAAG” is -0.205; for “GGUCACGUCUCAAUCAACUCAUCCUCCAGGGAAACCCCUGGCAUACUCAACAGCUCGCAGUCAAG” it is -0.027; for “GGUCACGUCUCAAUCAACUCAAUCCCAGGAGUUUACUCCUGUUUAUUCAACAGCUCGCAGUCAAG” it is -0.0735.
For “GGUCACGUCUCAAUCAACUCAUCGGCAGGAGUUUUCUCCUGGAUAUUCAACAGCUCGCAGUCAAG” the value was 0.131; for “GGUCACGUCUCAAUCAACUCUACUUCCAGGGAAAACCCUGGUUUACUCAACAGCUCGCAGUCAAG”, 0.207.
As for “GGUCACGUCUCAAUCAACUCUAUUCCAGGAGUUUUCUCCUGUAUUUUCAACAGCUCGCAGUCAAG”, the binding signal (log2 fold change) was -0.0336.
As to “GGUCACGUCUCAAUCAACUCACAAGAGGGGGGGAAAACCCCUUUGCCCUCACUUUCAACAGCUCGCAGUCAAG”, the binding signal (log2 fold change) is -0.176.
For the sequence “GGUCACGUCUCAAUCAACUCACACGAGGGGGGGAAAACCCCUUUACCCUCAAAAUCAACAGCUCGCAGUCAAG”, the binding signal (log2 fold change) is 0.0825.
The figure for “GGUCACGUCUCAAUCAACUCCCUAGAGGGGGGGAAAACCCCUUUGCCCUCCAUUUCAACAGCUCGCAGUCAAG” is -0.5; for “GGUCACGUCUCAAUCAACUCAUCCCCCAGGGAAAACCCUGGCUAACUCAACAGCUCGCAGUCAAG” it is 0.0392.
The figure for “GGUCACGUCUCAAUCAACUCUAUUUCCAGGGAAAACCCUGGCAUUCUCAACAGCUCGCAGUCAAG” is 0.0709.
For “GGUCACGUCUCAAUCAACUCAUCCUCAGGAGUUUCCUCCUGCUUAUUCAACAGCUCGCAGUCAAG”, the binding signal (log2 fold change) stood at 0.0629.
For “GGUCACGUCUCAAUCAACUCAAUCCCCAGGGAAAUCCCUGGUUUAUUCAACAGCUCGCAGUCAAG” the value was -0.0516; for “GGUCACGUCUCAAUCAACUCAUUUUCAGGAGUUUCCUCCUGCAAUUUCAACAGCUCGCAGUCAAG”, -0.0569; for “GGUCACGUCUCAAUCAACUCAAACGAGGGGGGGAAAACCCCUUUACCCUCCAAUUCAACAGCUCGCAGUCAAG”, 0.0464.
The figure for “GGUCACGUCUCAAUCAACUCUAUUUCAGGAGUUUUCUCCUGUUUUUUCAACAGCUCGCAGUCAAG” is 0.0196; for “GGUCACGUCUCAAUCAACUCAGUUUCAGGAGUUUGCUCCUGCUUAUUCAACAGCUCGCAGUCAAG” it is 0.11; for “GGUCACGUCUCAAUCAACUCCUACGAGGGGGGGAAAACCCCUUUACCCUCCAUUUCAACAGCUCGCAGUCAAG” it is -0.0353.
Take “GGUCACGUCUCAAUCAACUCUUUCCCCAGGGAAAUCCCUGGUAGUCUCAACAGCUCGCAGUCAAG”: the binding signal (log2 fold change) was 0.13.
As for “GGUCACGUCUCAAUCAACUCUAUUCCCAGGGAAACCCCUGGCUUAUUCAACAGCUCGCAGUCAAG”, the binding signal (log2 fold change) is 0.00434.
Regarding “GGUCACGUCUCAAUCAACUCUUCUUCCAGGGAAAUCCCUGGCAAUGUCAACAGCUCGCAGUCAAG”, the binding signal (log2 fold change) was 0.132.
For “GGUCACGUCUCAAUCAACUCAUCCCCAGGAGUUUGCUCCUGCUAUUUCAACAGCUCGCAGUCAAG” the value was 0.174.
The figure for “GGUCACGUCUCAAUCAACUCUAUUUCCAGGGAAACCCCUGGCAAUUUCAACAGCUCGCAGUCAAG” is -0.13.
